Experimental data from the supplement of paper PMC3334620.
Whole data set: some 33,000 sequences, median “E-score (-0.5 to 0.5)” near -0.035, cut for the highest 2% near 0.35. The list shows a part of the results.

target: T1, Pdr3 (UniProt P33200); assay: PBM E-score (8-mer binding enrichment) (E-score (-0.5 to 0.5)); higher = stronger / more preferred TF binding; most listed sequences are background and not binding sites; settings: protein concentration: 200 nM; construct: GST-full length
T1 sequence: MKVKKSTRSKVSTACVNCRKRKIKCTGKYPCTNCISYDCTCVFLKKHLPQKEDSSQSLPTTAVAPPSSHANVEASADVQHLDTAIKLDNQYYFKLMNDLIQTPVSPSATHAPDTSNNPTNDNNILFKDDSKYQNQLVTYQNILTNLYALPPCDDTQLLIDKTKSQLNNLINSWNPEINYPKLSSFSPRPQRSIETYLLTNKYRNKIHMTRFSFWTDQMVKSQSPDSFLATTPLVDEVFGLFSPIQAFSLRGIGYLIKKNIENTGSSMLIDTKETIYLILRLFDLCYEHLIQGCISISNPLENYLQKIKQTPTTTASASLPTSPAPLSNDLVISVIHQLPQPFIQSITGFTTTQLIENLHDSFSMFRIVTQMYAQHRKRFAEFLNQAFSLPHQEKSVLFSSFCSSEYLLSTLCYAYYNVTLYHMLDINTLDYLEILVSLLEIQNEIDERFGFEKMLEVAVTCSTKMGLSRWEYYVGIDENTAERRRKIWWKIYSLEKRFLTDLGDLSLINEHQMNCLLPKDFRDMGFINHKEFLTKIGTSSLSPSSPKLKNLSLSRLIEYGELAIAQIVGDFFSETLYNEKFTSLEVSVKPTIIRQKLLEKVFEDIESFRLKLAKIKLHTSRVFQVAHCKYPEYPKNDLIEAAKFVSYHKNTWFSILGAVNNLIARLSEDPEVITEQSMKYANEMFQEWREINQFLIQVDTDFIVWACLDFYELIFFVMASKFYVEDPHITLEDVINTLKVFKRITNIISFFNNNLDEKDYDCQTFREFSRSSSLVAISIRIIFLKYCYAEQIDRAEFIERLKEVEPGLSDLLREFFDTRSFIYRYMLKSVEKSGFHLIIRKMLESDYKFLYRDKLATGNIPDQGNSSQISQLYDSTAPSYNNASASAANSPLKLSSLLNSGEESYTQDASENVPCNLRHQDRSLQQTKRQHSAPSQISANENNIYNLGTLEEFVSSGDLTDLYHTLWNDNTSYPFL
Description: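 Universal 'all 10-mer' protein binding microarrays (Agilent AMADID 015681) probed with GST-tagged S. cerevisiae TFs (full-length or DBD) made by in vitro transcription/translation (PURExpress), about 100-200 nM. Bound TF was detected with fluorescent anti-GST. Each ungapped 8-mer (which stands for itself and its reverse complement) is scored by the PBM enrichment score (E-score), a modified Wilcoxon-Mann-Whitney statistic from -0.5 to +0.5, computed with the Universal PBM Analysis Suite. Scale: above 0.35 generally sequence-specific binding.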

Sequence	PBM E-score
CAACAATG	0.00643
CGTTCCCA	-0.0584
CCCCATAG	-0.0107
GTGGACAC	0.0518
ATAGTCCA	-0.086
AGCATCAG	-0.128
CCGTCGAA	0.0963
AAATATTA	0.189
ACGAGGTA	0.00408
ATCAATCC	0.111
ACACTATG	-0.0656
ACTTGTAT	-0.0576
GGGCAACC	-0.0646
AGCTCAAG	-0.171
CTATAGGC	-0.0914
CTTGAAAG	-0.27
CCACCGAG	0.0244
GCGCGAGC	0.0964
ACAAATGG	-0.192
CTGTACTA	-0.0992
CTACACGC	-0.294
AAGTTACA	-0.162
TAGTGTGA	-0.114
AGTCGCGA	0.101

Sequence	PBM E-score
AGCTATCC	0.0653
AGGTTCAT	-0.0286
CGTAACTC	-0.112
CATACCAC	0.0126
CCGCGTGC	0.153
GATTAAAA	0.057
CACATGGC	-0.0488
AGAAGACC	-0.109
CCCGGGAC	0.451
TCACAAAA	0.0917
CTTGTGTC	0.0194
CCCTGGAA	-0.172
AGCACGGA	0.311
ACACACCC	0.0755
TGGATAAA	0.103
ACGTATCC	-0.0705
CGTTGTCC	0.126
CCCGAGGC	0.175
ATGCCAAG	-0.164
CCAACTCG	0.0294
ACGGGTTA	-0.111
CCTGCCGA	0.0392
TCCATAGA	-0.0676
GTACACTA	-0.256

Sequence	PBM E-score
CTATGGCC	-0.124
TGGGGACA	-0.0243
GAGTCTCA	-0.175
AGACATTA	-0.107
CAAAGGCG	-0.165
ATTGTGAA	-0.117
GCAAGGTA	-0.15
CAGCCCCA	0.0418
CCTATGAA	-0.0726
GGATACAA	0.132
ACCTCACA	-0.0677
CACCGCGG	0.452
ACCTCGAG	0.0826
CATTATTA	0.0664
CCTTAAAC	-0.161
CGGACCGA	0.352
AGCGGCTC	0.082
AATCTGGA	-0.0162
GGCCATAA	0.0789
CCGGATAC	0.351
AATACATC	0.182
CGAGAGAG	0.0773
GGCGGCCC	-0.00494
AACATTCA	0.0836

Sequence	PBM E-score
GTCGTTGA	-0.129
CCATTAGG	-0.257
CGAACGAG	-0.0975
AATACGAC	-0.173
AGGATCAA	0.103
ATAATCTG	-0.182
AAATCCCT	-0.22
ACCCCACC	0.272
CAAGATCA	-0.0417
CGACTCAG	-0.127
ACTTACTA	-0.258
CTTTCTAA	-0.183
ATACCCCA	0.0496
AGGGGCCC	0.125
GCACAAGC	0.00066
CTAATTAG	0.0718
AGAGCTAC	-0.128
ATTCAGAA	-0.231
CGGCACTC	0.112
CCGAAGGA	0.105
CACGATCC	0.097
GACTTTCA	-0.044
